Source: PubChem BioAssay AID588855 (National Center for Advancing Translational Sciences (NCATS), 2011)
“And” between values parts separate entries of the source, which are not always exact repeats. Identical values can stand only once. Out of some 410,000 compounds screened, about 5,000 (1.2%) were called active. The shares of active, inactive and inconclusive entries below differ from those in the screen. Calls follow the shape of the dose curve; as a rule, active = well fitted inhibition curve with a large enough effect; inconclusive = small, poorly fitted or top-dose-only effect; inactive = no such curve, though single readings can be large or run the other way. A potency beside an inconclusive call is a rough fit, not a confirmed value.

experiment: qHTS for Inhibitors of TGF-b; conditions: HepG2 CAGA-GFP TGF-b/SMAD3 reporter, GFP fluorescence, 18 h, TGF-beta stimulated, 500 pg/mL final; series mostly up to 46.1 µM; also: nearly all actives have a fitted effect of over 65% in size
Method in brief: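 HEPG2 CAGA-GFP reporter cells (1000/well, DMEM with 1% FBS) received compounds, then recombinant TGF-beta at 500 pg/mL final for 18 hours at 37 degrees C. Per-cell GFP summed per well was normalised to unstimulated and stimulated DMSO controls before curve fitting.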
Potency is read from the fitted curve at half-maximal effect; tags tell the direction and shape of the fitted curve.

SMILES | Potency
O=C(O)CCCC(=O)N1CCc2cc(S(=O)(=O)NCc3ccc(F)cc3)ccc21 | inconclusive: 35.5 µM [inhibitor, single point]
COc1ccc2nc(NC(=O)c3ccoc3C)sc2c1 | inconclusive: 1.12 µM [inhibitor, full curve, poor fit]
O=C(CCCN1C(=O)/C(=C/c2ccccc2Cl)SC1=S)NCCCN1CCOCC1 | inconclusive: 35.5 µM [inhibitor, single point]
COc1cccc(-n2c(=O)c3sc4ccccc4c3n(CC(=O)Nc3ccccc3OC)c2=O)c1 | inconclusive: 4.47 µM [inhibitor, full curve, poor fit]
Cc1ccc(-n2nc(CO)c(C(=O)NCCc3ccccc3)n2)cc1 | inactive
CCC(CC)C(=O)N(C)c1c(C)nc2c(OCc3ccc(Cl)cc3)cccn12 | inconclusive: 12.6 µM [inhibitor, partial curve]
FC(F)(F)c1cc(C(F)(F)F)c2ccc(N/N=C/c3ccccc3)nc2n1 | inconclusive: 6.31 µM [inhibitor, partial curve, poor fit]
CCOC(=O)Cc1ccc(NC(=O)c2cccc([N+](=O)[O-])c2)cc1 | inconclusive: 0.355 µM [inhibitor, full curve, poor fit]
CCOc1ccc(N(C)C(=O)C2CCN(S(=O)(=O)c3ccc4c(c3)CCCN4C(C)=O)CC2)cc1 | inconclusive: 35.5 µM [inhibitor, single point]
CCN(CC)C(=S)NC(=O)c1cc(OC)c(OC)c(OC)c1 | inactive
CCc1noc(C)c1C(=O)N(C)CC(=O)Nc1ccc(Cl)c(Cl)c1 | inconclusive: 6.31 µM [inhibitor, single point]
CCCCNC(=O)C1=CC(c2ccc3c(c2)OCO3)=NS(=O)(=O)N1C | inactive
OC(c1cc(F)cc(Cl)c1)c1ncc(-c2ccccc2C(F)(F)F)[nH]1 (stereo not given) | inconclusive: 35.5 µM [inhibitor, single point]
C/C(=N\NC(=O)c1cccc(N/N=C(\C)c2cc(O)ccc2O)c1)c1cc(O)ccc1O | inconclusive: 14.1 µM [inhibitor, single point]
Cc1ccc(NS(=O)(=O)c2cc(-c3n[nH]c(=O)c4ccccc34)ccc2C)cc1 | inconclusive: 4.47 µM [inhibitor, single point]
CCc1ccc(Nc2n[n+](C)c(-c3ccncc3)s2)cc1 | inconclusive: 15.8 µM [inhibitor, single point]
Cc1ccc(/C=N/n2nnnc2N)cc1 | inconclusive: 7.08 µM [inhibitor, partial curve, poor fit]
CCNc1nc2c(c(=O)[nH]c(=O)n2C)n1CCCc1ccccc1 | inactive
CC1(C)CC(N2CCCC2)=CC(=[N+]2CCCCC2)C1 | inconclusive: 14.1 µM [inhibitor, single point]
CCOC(=O)C1(Cc2cccc(F)c2)CCN(C(=O)c2ccoc2C)CC1 | inactive
N#Cc1ccc2nc3c(nc2c1)CCCC3 | inactive
CC1=CC(C)(C)n2c(O)c(N=N)c3c(C)c(C)cc1c32 | inconclusive: 22.4 µM [inhibitor, single point]

SMILES | Potency
O=C(CSc1ncc(S(=O)(=O)c2ccc(Cl)cc2)c(=O)[nH]1)Nc1ccc2c(c1)OCCO2 | inactive
COC1(OC)C=CC(=O)C=C1NC(=O)c1ccccc1OC(C)=O | active: 11.2 µM
COC(=O)/C=C1\S/C(=N\N=C\CC(=O)OC)NC1=O | inactive
Cc1cc(NC(=O)C(C)SCC(=O)Nc2cc(C(F)(F)F)ccc2N2CCCCC2)no1 (stereo not given) | inconclusive: 35.5 µM [inhibitor, single point]
CCN(C(=O)c1cccc(NC(=O)c2ccccc2)c1)C1CCCCC1 | inactive
Cc1c(Cl)cccc1Nc1nc(N)nc(CSc2nc3ccccc3s2)n1 | inconclusive: 35.5 µM [inhibitor, single point]
CCNC(=O)CCCOc1ccc(Cl)cc1Cl | inconclusive: 2.51 µM [inhibitor, partial curve, poor fit]
O=C1CSC(=S)N1c1cccc(Cl)c1 | inconclusive: 20 µM [inhibitor, single point]
Cc1ccc2oc(C(=O)Nc3ccc(S(=O)(=O)Nc4onc(C)c4C)cc3)cc(=O)c2c1 | inconclusive: 35.5 µM [inhibitor, single point]
CCOC(=O)c1c(C)[nH]c(C)c1S(=O)(=O)N1CCC(C(=O)N2CCN(c3cc(C)ccc3C)CC2)CC1 | inconclusive: 35.5 µM [inhibitor, partial curve, poor fit]
Cc1ccc(NC(=O)CCCn2c3ccccc3c(=O)c3cc(C)ccc32)c(Br)c1 | inactive
CC1CCN(S(=O)(=O)c2ccc3c(c2)N(CC(=O)NCCc2ccc(Cl)cc2)C(=O)CO3)CC1 | active: 12.6 µM
O=C(CCC(=O)N1CCSc2ccccc21)NCc1ccc(Cl)cc1 | inactive
COC(=O)c1sc(SC)c(S(=O)(=O)C(C)C)c1N | inconclusive: 4.47 µM [inhibitor, single point]
O=C1c2[nH]nc(-c3ccccc3)c2C(c2ccccc2)N1c1cccc(C(F)(F)F)c1 (stereo not given) | inconclusive: 12.6 µM [inhibitor, partial curve, poor fit]
CCC(C(=O)OCC(=O)Nc1ccc(C(=O)Nc2ccc(OC)cc2)cc1)c1ccccc1 (stereo not given) | inconclusive: 12.6 µM [inhibitor, partial curve, poor fit]
CCN(Cc1ccccc1)C(=O)Cn1c(=O)n(-c2ccc(OC)cc2OC)c(=O)c2c(C)c(C)sc21 | inconclusive: 11.2 µM [inhibitor, single point]
COc1ccc(Cl)cc1NC(=O)Cn1c(=O)n(Cc2ccco2)c(=O)c2ccc(C(=O)NC3CCCC3)cc21 | inactive
C[N+]1(CC(=O)c2ccc3c(c2)CCCC3)CCOCC1 | inactive
CCOC(=O)CSc1c(-c2ccc(Cl)cc2)[nH]c2ccccc12 | inconclusive: 35.5 µM [inhibitor, partial curve, poor fit]
CN(Cc1ccc2nonc2c1)Cc1nc(CC2CC2)no1 | inconclusive: 35.5 µM [inhibitor, single point]
COc1cc(CNc2ncnc3c2ncn3[C@H]2CN(Cc3cccc4ccccc34)C[C@@H](CO)O2)cc(OC)c1OC | inconclusive: 35.5 µM [inhibitor, single point]

SMILES | Potency
CCC(=O)N1CCC1(C)C(=O)Nc1nccs1 (stereo not given) | inactive
COc1cc(/C=C2\SC(=S)N(CCCCC(=O)O)C2=O)ccc1OS(=O)(=O)c1ccc(C)cc1 | inactive
CC1=CC(C)(C)N(C(=O)CSc2nnc(-c3ccc(C)cc3)o2)c2ccc(C)cc21 | inconclusive: 35.5 µM [inhibitor, single point]
C/C=C/c1ccc(OCCOc2cc(C=O)ccc2OC)c(OC)c1 | inconclusive: 35.5 µM [inhibitor, single point]
CCOc1ccc(-n2c(SCC(=O)NCc3ccco3)nc3c([nH]c4ccccc43)c2=O)cc1 | inconclusive: 6.31 µM [inhibitor, full curve, poor fit] and inconclusive: 282 nM [inhibitor, full curve, poor fit]
COc1ccc(Cl)cc1NC(=O)C/C(C)=N/NC(=O)Cc1ccccc1 | inactive
Cc1cccc(-c2nnc3n(CCc4ccccc4)c(=O)c4ccccc4n23)c1 | inconclusive: 2 µM [inhibitor, full curve, poor fit]
COC(=O)C1=C(C)N(Cc2ccccc2)C(=NCc2ccccc2)N[C@H]1c1ccccc1 | inconclusive: 22.4 µM [inhibitor, single point]
COc1cccc(CN2CCC2(C)C(=O)Nc2cnc3ccccc3c2)c1F (stereo not given) | inactive
Cc1cccc(-c2cc3nc(C)c(C)c(NCCCn4ccnc4)n3n2)c1 | inconclusive: 17.8 µM [inhibitor, single point]
Nc1c(C(=O)NCc2ccc3c(c2)OCO3)c2nc3ccccc3nc2n1CCCN1CCOCC1 | inconclusive: 35.5 µM [inhibitor, single point]
O=C(c1ccc(S(=O)(=O)NCC2CCCO2)cc1)N1CCc2ccccc21 (stereo not given) | inactive
C#CCN(C[C@@H]1[C@@H](OC(=O)NCc2ccco2)[C@@H](OC(=O)NCc2ccco2)Cn2c(=O)n(CCCCCC)c(=O)n21)S(=O)(=O)c1ccc(C)cc1 | inconclusive: 6.31 µM [inhibitor, full curve, poor fit]
CCN(CC)CCCNC(=O)c1cc(-c2ccc(O)cc2)on1 | inconclusive: 35.5 µM [inhibitor, single point]
Cc1ccc(C2CC(C(F)F)n3ncc(C(=O)Nc4cnn(Cc5ccccc5C)c4)c3N2)cc1 (stereo not given) | inconclusive: 22.4 µM [inhibitor, single point]
COc1ccc(-c2nc3ccc(NS(=O)(=O)c4ccccc4)cc3o2)cc1 | inconclusive: 35.5 µM [inhibitor, single point]
CCOc1ccc(CNC(=O)c2cc3c(=O)n(Cc4cccs4)ccc3nc2C)cc1 | inconclusive: 20 µM [inhibitor, partial curve, poor fit]
CC/C(C)=N\Nc1nc(-c2cc3cc(OC)ccc3oc2=O)cs1 | inactive
COc1cc2ccccc2cc1C(=O)Nc1ccc(O)cc1 | inconclusive: 8.91 µM [inhibitor, partial curve, poor fit]
CCC1COCCS(=O)(=O)N1Cc1ccc(Cl)cc1 (stereo not given) | inconclusive: 8.91 µM [inhibitor, partial curve, poor fit]
O=C(Nc1nc(-c2ccc(-c3ccccc3)cc2)cs1)C1=COCCO1 | inconclusive: 3.55 µM [inhibitor, partial curve]
